Laboratory results as given in PubChem BioAssay AID504832 (National Center for Advancing Translational Sciences (NCATS), 2011).
In all, about 310,000 compounds went through this assay and about 18,000 (5.8%) were called active. Inconclusive results, whose numbers are uncertain, are shown with a selection of clear calls. Calls come from the whole dose curve; as a rule, active = well fitted inhibition curve with a large enough effect; inconclusive = small, poorly fitted or top-dose-only effect, or another doubt; inactive = no such curve, though single readings can be large or run the other way. No potency is given beside an inconclusive call; the fits are too rough.

assay: Primary qHTS for delayed death inhibitors of the malarial parasite plastid, 48 hour incubation; settings: P. falciparum luciferase growth in erythrocytes; series mostly up to 28.7 µM
In short: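 A one-generation exposure of luciferase-tagged malaria parasites in RPMI 1640/Albumax erythrocyte culture, 37 C and 5% CO2. Inhibition is inferred from decreased luminescence after adding detection reagent.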
Potency is the fitted concentration of half-maximal effect; tags give direction and shape of the fitted curve.

Row | Compound | Potency
1 | NS(=O)(=O)c1ccc(N2N=C(c3ccccc3)CC2c2cccc(F)c2)cc1 (configuration not stated) | inconclusive [inhibitor, partial curve, poor fit]
2 | CC1CCCCC1NC(=O)c1cn(C)c2ccc(S(=O)(=O)N3CCOCC3)cc2c1=O (configuration not stated) | inconclusive [inhibitor, single point]
3 | COc1cccc(NC(=O)C2CCCN2C(=O)OCc2ccccc2)c1 (configuration not stated) | inconclusive [inhibitor, single point]
4 | CC(C)(C)NC(=O)C(c1ccc(F)cc1)N(CCc1ccccc1)C(=O)c1ccn[nH]1 (configuration not stated) | inactive
5 | Cc1ccc(-c2c(C(=O)N/N=C/c3c[nH]c4ccccc34)nnn2-c2nonc2N)cc1 | inconclusive [inhibitor, single point]
6 | CCNc1sc(C(=O)c2cccs2)c(N)c1C#N | inactive
7 | CC(=O)N1CCCc2cc(S(=O)(=O)N3CCCC(C(=O)Nc4ccccc4C)C3)ccc21 (configuration not stated) | inconclusive [inhibitor, partial curve, poor fit]
8 | COc1ccc2cc(C(=O)C3CCCN(Cc4ccccn4)C3)ccc2c1 (configuration not stated) | active: 9.28 µM
9 | COc1cc([C@H]2[C@@H]3CCCC[C@]3(O)CCN2CC(=O)Nc2ccc(C)cc2C)ccc1O | inconclusive [inhibitor, partial curve, poor fit]
10 | COc1cccc(N2CCN(c3ccc4nnc(CCC(=O)Nc5ccccc5OC)n4n3)CC2)c1 | inconclusive [inhibitor, partial curve]
11 | CCN(CC)C(=S)Sc1c(-c2ccccc2)c2cc(Cl)ccc2[nH]c1=O | inconclusive [inhibitor, single point]
12 | O=C(/C=C/c1ccc(OCCCF)cc1)Nc1ccnc(-c2ccncc2)n1 | active: 13.1 µM
13 | Cn1cc(Cl)c(C(=O)OCC(=O)Nc2nc(-c3ccc(Br)cc3)cs2)n1 | inactive
14 | O=C(/C=C/c1ccco1)Nc1cccc(-c2nc3ccccc3[nH]2)c1 | inconclusive [inhibitor, partial curve, poor fit]
15 | Cc1oc(-c2ccc(Cl)cc2)nc1CN1CCCC(C(=O)N2CCOCC2)C1 (configuration not stated) | inconclusive [inhibitor, partial curve, poor fit]
16 | O=C(Cc1ccc(-n2c(=O)c3ccccc3n(Cc3ccc(F)cc3)c2=O)cc1)NCC1CCCO1 (configuration not stated) | inconclusive [inhibitor, single point]
17 | O=C(Nc1ccc(NC(=O)C2CCCCC2)nc1)c1cccs1 | inconclusive [inhibitor, single point]
